Experimental data: PubChem BioAssay AID1466 (National Center for Advancing Translational Sciences (NCATS), 2008)
Out of some 200,000 compounds screened, about 10 (0.005%) were called active. The shares of active, inactive and inconclusive entries below differ from those in the screen. Calls come from the whole dose curve; as a rule, active = well fitted inhibition curve with a large enough effect; inconclusive = small, poorly fitted or top-dose-only effect, or effect the other way, or another doubt; inactive = no such curve, though single readings can be large or run the other way. No potency is given beside an inconclusive call; the fits are too rough.

What follows are compounds tested against Lysosomal alpha-glucosidase (Homo sapiens) (UniProt P10253) (assay: qHTS Assay for Inhibitors of Human alpha-Glucosidase as a Potential Chaperone Treatment of Pompe Disease). Settings: purified human GAA, 4-MU-alpha-glucoside fluorescence; activity change, negative = inhibition: at 76.9 µM (top of the series) unless noted.
In short: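 Read-out is 4-methylumbelliferone fluorescence (Ex 365/Em 440 nm) after NaOH/glycine stop at pH 10. Enzyme 4 nM, substrate 400 uM, pH 5.0 citrate buffer, 20 min room temperature; AC50 from Hill-equation concentration-response.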
Potency is the fitted concentration of half-maximal effect; tags give direction and shape of the fitted curve.
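Throughout, for activity change, negative = inhibition: plate controls were uninhibited enzyme wells for no effect and no-enzyme background for full effect.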

Row | Structure (SMILES) | activity change, negative = inhibition | Potency
1 | COc1cccc(/C=N/n2c(-c3cccs3)n[nH]c2=S)c1 | inconclusive: 16.2% [activator] | –
2 | COCCn1c(N)c(C(=O)NCC2CCCO2)c2nc3ccccc3nc21 (configuration not stated) | – | inconclusive [activator, partial curve]
3 | CC1(C)CC(=O)C2=C(C1)N(CCN1CCOCC1)C1=C(C(=O)CC(C)(C)C1)C2c1ccc(Cl)cc1 | – | inconclusive [activator, single point]
4 | Cc1ccc(N2CC(O)=C(c3nc4ccccc4c(=O)[nH]3)C2=N)cc1C | inconclusive: 10.8% [activator] | –
5 | Cc1ccc(S(=O)(=O)Oc2ccc(/C=N/N=C3/NC(=O)C(CC(=O)O)S3)cc2)cc1 (configuration not stated) | – | inconclusive [inhibitor, single point]
6 | CC(Oc1ccc(Cl)cc1Cl)C(=O)NC1CCSC1=O (configuration not stated) | – | inconclusive [inhibitor, single point]
7 | CNCCOc1ccccc1C(C)(C)C | – | inconclusive [inhibitor, single point]
8 | O=C(Nc1ccc(N2CCCC2)c(Cl)c1)c1cccs1 | – | inconclusive [inhibitor, single point]
9 | Cc1ccc(S(=O)(=O)N2CCN(C(=O)Cc3ccc4c(c3)OCCO4)CC2)cc1C | – | inconclusive [inhibitor, partial curve]
10 | COC(=O)c1cc(Cc2ccc(N)c(C(=O)OC)c2)ccc1N | – | inconclusive [activator, partial curve]
11 | Cc1cccc(NC(=S)N(Cc2cccs2)Cc2cc3cc(C)ccc3[nH]c2=O)c1 | – | inconclusive [inhibitor, partial curve, poor fit]
12 | CCOc1ccc(C(=O)NCCn2cc(SCC(=O)Nc3cc(C)on3)c3ccccc32)cc1 | – | inconclusive [inhibitor, full curve, poor fit]
13 | COC(=O)c1cc(OC)c(OC)cc1NC(=O)c1cccc(C)c1 | – | inconclusive [activator, single point]
14 | COc1cccc(CN2CCN(Cc3nc4c(s3)CCCC4)CC2CCO)c1 (configuration not stated) | inconclusive: 11% [activator] | –
15 | Cc1ccc(NNC(=O)c2cc(C(C)(C)C)nn2Cc2ccccc2)cc1 | inactive: -5.92% [at 15.4 µM] | –
16 | CC1=CCC2C(=O)N(c3ccc4ccccc4n3)C(=O)C2C1 (configuration not stated) | – | inconclusive [inhibitor, partial curve, poor fit]
17 | Nc1ccc(-n2nnnc2-c2ccco2)cc1 | inconclusive: -18.9% [inhibitor] | –
18 | COc1ccc(Cl)cc1N(CC(=O)Nc1ccccc1C(=O)NCc1ccco1)S(C)(=O)=O | inconclusive: -15.8% [inhibitor] | –
19 | Cc1cnc(C)c(N2CCN(Cc3nc(-c4ccc(C)o4)oc3C)CC2)n1 | – | inconclusive [inhibitor, single point]
20 | O=C(CCc1nnc(Cc2ccc3c(c2)OCO3)o1)NC(c1ccccn1)C(F)(F)F (configuration not stated) | – | inconclusive [inhibitor, single point]
21 | COCCSc1ccccc1C(=O)N1CCCC(C)C1 (configuration not stated) | – | inconclusive [activator, full curve, poor fit]

Row | Structure (SMILES) | activity change, negative = inhibition | Potency
22 | Cc1ccc(-c2[nH]c(=O)n3ccncc23)s1 | inactive: -7.07% | –
23 | CCOC(=O)c1c(C)nc(C)c(C(=O)OCC)c1-c1ccccc1 | – | inconclusive [activator, partial curve]
24 | COc1ccccc1NC(=S)N1CC(C)OC(C)C1 (configuration not stated) | – | inconclusive [activator, full curve, poor fit]
25 | CCSC1=C(C#N)C(c2cccs2)C(C(=O)OC)=C(C)N1 (configuration not stated) | – | inconclusive [inhibitor, single point]
26 | CC1=CC(C)(C)N(S(=O)(=O)c2ccc(F)cc2)c2ccc(C)cc21 | – | inconclusive [inhibitor, single point]
27 | CC1=CC(=C2C(=O)c3ccccc3C2=O)C=C(C)N1Cc1ccco1 | – | inconclusive [inhibitor, single point]
28 | Cc1cccc(N2CCN(C(=S)c3ccc([N+](=O)[O-])cc3)CC2)c1 | – | inconclusive [inhibitor, partial curve, poor fit]
29 | CCOC(=O)C1(Cc2cccc(OC)c2)CCCN(C(=O)CCc2cccnc2)C1 (configuration not stated) | inconclusive: 7.29% [activator] | –
30 | Cc1c(Cl)cccc1Nc1nc(N)nc(CN2CCc3ccccc3C2)n1 | – | inconclusive [inhibitor, partial curve]
31 | CCOc1ccc2[nH]c3c(=O)n(CCc4ccc(OC)cc4)cnc3c2c1 | – | inconclusive [activator, single point]
32 | CSCCC(NC(=O)c1ccccc1)C(=O)OCC(=O)Nc1ccc(C)c(Cl)c1 (configuration not stated) | – | inconclusive [inhibitor, single point]
33 | CC(C)C(=O)N(Cc1ccc(F)cc1)Cc1nc2ccccc2c(=O)[nH]1 | inconclusive: 17.5% [activator] | –
34 | COc1ccc(/C=C/c2nc3ccccc3n2Cc2ccccc2OC)cc1 | – | inconclusive [activator, single point]
35 | Cc1cc[n+](CC2OCc3ccccc3CO2)cc1 | inconclusive: 14.7% [activator] | –
36 | Cc1ccc(-c2nc(CN3CCCCC3CCN3CCCC3=O)c(C)o2)o1 (configuration not stated) | inconclusive: 14.3% [activator] | –
37 | Cn1nnc(NC(=O)c2ccco2)n1 | inactive: -5.71% | –
38 | O=c1c2c(nc3c(-c4cccc5ccccc45)c[nH]n13)CCC2 | – | inconclusive [activator, partial curve]
39 | COc1ccc(-c2ccnc3nc(N4CCOCC4)nn23)cc1 | – | inconclusive [activator, partial curve]
40 | CC(C)Oc1ccc(C(=O)NCC(=O)OCC(=O)N(C)Cc2cccs2)cc1 | – | inconclusive [inhibitor, single point]
41 | CCCCN1C(=O)c2ccc(C(=O)Nc3cccnc3)cc2C1=O | inactive: 0.697% | –
42 | Cc1ccc2c(c1)c1c(n2CC(O)CNC2CCCCC2)CCCC1 (configuration not stated) | – | inconclusive [inhibitor, single point]
